Measured values taken from publication PMC4336329 (PLoS ONE, 2015).
Hit rate of the full screen: of about 310,000 compounds, about 14,000 (4.5%) showed an effect of 50% or more. The effect is printed as a negative number. The list shows a part of the results.

target: human ether-à-go-go-related gene (hERG) potassium channel (human, UniProt Q12809); experiment: primary screen, population patch clamp on CHO cells stably expressing hERG
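Note: peak tail current of the secondary pulse compared with the same well before compound.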

Sequence of human ether-à-go-go-related gene (hERG) potassium channel (Q12809 whole entry, looked up): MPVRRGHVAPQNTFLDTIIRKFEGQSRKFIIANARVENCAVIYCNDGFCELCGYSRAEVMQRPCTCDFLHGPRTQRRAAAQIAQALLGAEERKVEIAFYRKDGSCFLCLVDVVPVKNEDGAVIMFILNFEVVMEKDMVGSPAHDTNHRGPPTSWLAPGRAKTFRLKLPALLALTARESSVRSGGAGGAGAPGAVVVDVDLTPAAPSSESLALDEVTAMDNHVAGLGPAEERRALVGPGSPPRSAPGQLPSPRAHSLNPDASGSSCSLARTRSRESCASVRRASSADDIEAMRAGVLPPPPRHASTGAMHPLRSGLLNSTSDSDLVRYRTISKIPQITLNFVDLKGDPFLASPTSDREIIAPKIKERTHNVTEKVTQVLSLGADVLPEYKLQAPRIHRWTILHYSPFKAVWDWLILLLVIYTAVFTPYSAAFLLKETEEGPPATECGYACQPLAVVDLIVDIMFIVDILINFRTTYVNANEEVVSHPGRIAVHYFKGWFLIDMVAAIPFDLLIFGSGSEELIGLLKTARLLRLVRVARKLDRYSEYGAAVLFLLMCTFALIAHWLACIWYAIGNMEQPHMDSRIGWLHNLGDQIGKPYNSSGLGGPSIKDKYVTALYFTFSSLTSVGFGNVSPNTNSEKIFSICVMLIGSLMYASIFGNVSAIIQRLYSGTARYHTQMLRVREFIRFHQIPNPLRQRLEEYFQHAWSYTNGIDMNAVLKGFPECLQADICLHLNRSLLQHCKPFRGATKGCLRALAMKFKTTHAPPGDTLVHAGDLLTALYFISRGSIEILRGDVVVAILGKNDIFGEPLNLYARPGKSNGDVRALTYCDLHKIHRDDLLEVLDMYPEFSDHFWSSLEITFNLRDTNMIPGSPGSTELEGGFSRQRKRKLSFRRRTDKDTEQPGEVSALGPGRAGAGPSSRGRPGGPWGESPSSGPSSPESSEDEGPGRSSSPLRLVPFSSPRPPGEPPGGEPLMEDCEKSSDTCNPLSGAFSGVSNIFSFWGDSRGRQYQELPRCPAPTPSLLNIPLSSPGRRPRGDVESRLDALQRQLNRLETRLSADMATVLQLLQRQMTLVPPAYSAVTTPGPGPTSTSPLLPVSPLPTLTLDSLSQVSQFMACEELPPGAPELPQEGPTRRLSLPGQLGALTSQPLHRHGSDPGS

| SMILES | hERG current change (%, negative = inhibition) at 10uM [%] |
| --- | --- |
| O=C(COc1ccc([N+](=O)[O-])cc1)NCCC1=CCCCC1 | -35.2 |
| O=C(N=C1SC2CS(=O)(=O)CC2N1Cc1ccc(Cl)cc1)C1CCCO1 (stereo not drawn) | 14.3 |
| C/C(=N\NC(=O)c1cc(C2CC2)nc2ccccc12)c1ccc(O)cc1O | -17.1 |
| COc1ccc(C)cc1NC(=O)C1CCN(S(=O)(=O)c2c(C)noc2C)CC1 | -4.69 |
| O=C(N1CCOCC1)N1CCN(c2ccccc2)CC1 | 4.81 |
| Cc1cccc(NC(=O)CSc2cccc3cccnc23)c1C | 5.81 |
| COC(=O)c1c(NC(=S)NNC(=O)c2ccc(Cl)s2)sc(C(=O)N(C)C)c1C | 18.2 |
| CC1(C)c2[nH]c3ccccc3c2C[C@H]2C(=O)N(CCCO)CC(=O)N21 | 18.1 |
| COc1cccc(CNC(=O)C2CCCN(S(C)(=O)=O)C2)c1 (stereo not drawn) | 4.36 |
| O=C(c1cnn(C(=O)c2ccccc2F)c1)c1ccccc1O | -13.9 |
| Cc1ccc(C)c(-n2c(CNc3ccc(F)cc3)nnc2SCC(N)=O)c1 | -18 |
| Cc1cc(NC(=O)C(=O)NCc2cccc(Cl)c2)no1 | -1.38 |
| COc1cccc(CCNC(=O)COc2cccc3c2OC(C)(C)C3)c1 | -6.6 |
| CC(C)(C)c1ccc2c(c1)N(CC(=O)N1CCCC1)C(=O)CO2 | 17.3 |
| C/C(=N\n1c(C)cc(C)c(C#N)c1=O)c1cccs1 | -4.62 |
| O=c1c2ccccc2nc(-c2ccccc2)n1/N=C/c1ccc([N+](=O)[O-])cc1 | 12.9 |
| C/C(=N/NS(=O)(=O)c1ccccc1)c1ccc(Cl)cc1 | -4.18 |
| N#Cc1ccc(COC(=O)CC(NC(N)=O)c2ccc(Cl)cc2)cc1 (stereo not drawn) | -59.9 |
| CN1CCN(S(=O)(=O)c2cccc3nsnc23)CC1 | 11 |
| O=S(=O)(c1ccc(-n2cnnn2)cc1)N(C1CCCCC1)C1CCCCC1 | 7.19 |
| COc1ccc(S(=O)(=O)NC(CC(=O)O)c2ccco2)cc1 (stereo not drawn) | -0.532 |
| COc1ccc(Br)cc1CN(C)C(=O)Cc1ccc(S(=O)(=O)N2CCOCC2)s1 | -70.4 |
| CCOc1ccc(NC(=O)c2cc([N+](=O)[O-])ccc2N2CCOCC2)cc1 | -55.5 |

| SMILES | hERG current change (%, negative = inhibition) at 10uM [%] |
| --- | --- |
| Cc1ccc(S(=O)(=O)NCCC(=O)Nc2nnc(C)s2)cc1 | -3.9 |
| CCSc1cc(N2CCCC2)nc(-c2ccc(C)cc2)n1 | 15.3 |
| O=C(CN1CCOCCOCCOCCOCC1)Nc1ccccc1 | 1.06 |
| O=C(CNC(=O)c1ccccc1Cl)Nc1ccc(F)cc1 | -4.76 |
| Cc1ccc(OCC(=O)Nc2nnc(S(=O)(=O)N3CCCCC3)s2)cc1 | 9.62 |
| Cc1c(CN2CCC(n3nccc3NC(=O)C3CCOC3)CC2)[nH]c2ccccc12 (stereo not drawn) | -30.6 |
| NC(=O)CSc1nnc(C2CC2)n1Cc1ccccc1 | 2.65 |
| COCCCNC(=O)c1cc2c(=O)n3cccc(C)c3nc2n(C(C)C)c1=N | -65.5 |
| CCOC(=O)c1sc2ncnc(Nc3cccc(C(=O)O)c3)c2c1C | 21.7 |
| COC(=O)c1ccccc1NC(=O)c1cccc(NC(=O)CSCc2ccccc2)c1C | -5.9 |
| O=C(c1ccco1)N1CCN(C(=O)c2cc(-c3ccccn3)nc3ccc(Cl)cc23)CC1 | -16.7 |
| O=C(CSc1nnc(NC(=O)C2CC2)s1)Nc1cccc(F)c1 | 25.7 |
| COc1cc(NC(=O)C2CC(=O)N(Cc3ccco3)C2)c(OC)cc1Cl (stereo not drawn) | -14.9 |
| N=c1c(C(=O)NC2CCCC2)cc2c(=O)n3ccccc3nc2n1C1CCCC1 | -82.2 |
| COc1ccc(NS(=O)(=O)c2cnc[nH]2)cc1 | 17.4 |
| CC(C)(C)OC(=O)N1CCC(NC(=O)c2[nH]cnc2C(=O)Nc2ccc(Cl)cc2)CC1 | 18.3 |
| Cc1ccc(-n2nnnc2SCn2nnc3ccccc3c2=O)cc1 | -6.18 |
| Cc1ccc(NC(=O)CCc2ccc(S(=O)(=O)N3CCOCC3)cc2)c(C)c1 | 3.85 |
| COC(=O)c1c(NC(=O)CN2CCN(c3ncccn3)CC2)sc(C(N)=O)c1C | 6.53 |
| CN(c1ccccc1)S(=O)(=O)c1ccc2ccccc2c1 | 25.8 |
| COc1nccnc1NS(=O)(=O)c1ccc(NC(=O)c2cccc(C)c2)cc1 | 9.78 |
| Cc1cccc(-n2ccnc2SCC(=O)Nc2nccs2)c1C | 7.98 |
